Measured values as given in the supplement of paper PMC4166925.
± gives the standard deviation of the averaged measurements. The full ranking holds about 33,000 sequences; the median of “E-score (dimensionless, -0.5 to 0.5)” is about -0.049, and the highest 2% start at about 0.37. The list shows a part of the results.

Test system: T1, PmTbr T-box DNA-binding domain (GST fusion)
T1 sequence: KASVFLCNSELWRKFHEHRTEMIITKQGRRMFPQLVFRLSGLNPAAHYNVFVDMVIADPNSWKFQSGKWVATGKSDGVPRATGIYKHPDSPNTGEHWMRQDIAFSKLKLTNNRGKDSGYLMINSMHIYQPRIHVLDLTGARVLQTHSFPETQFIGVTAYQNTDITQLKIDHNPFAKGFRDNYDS
Assay: PBM E-score of 8-mer (E-score (dimensionless, -0.5 to 0.5)); Tbr is Tbrain of the sea star Patiria miniata (Pm) or the sea urchin Strongylocentrotus purpuratus (Sp); higher = stronger binding preference; most listed sequences are background and not binding sites
Settings: the construct has about 5 more residues each side
How it was run: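 Primer extension turned Universal Agilent oligonucleotide arrays double-stranded. They were incubated with 200 nM protein in PBS (pH 7.5); the protein was a GST-fused Tbr T-box DNA-binding domain expressed in BL21 E. coli at 20 °C and purified on glutathione. Every ungapped 8-mer was scored from the scanned, quantified probe intensities, and the Universal PBM Analysis Suite gave each an enrichment E-score averaged over duplicate arrays.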

Sequence	PBM E-score of 8-mer
TCGTGTCA	0.305 ± 0.0037
ACTGATTA	-0.122 ± 0.037
AAACTATG	-0.157 ± 0.0096
ACGTTAAA	-0.118 ± 0.0082
CCCTGCGC	0.115 ± 0.035
CCACGTAG	0.122 ± 0.067
CGTTAAAG	0.0719 ± 0.05
CGTGCTTC	-0.135 ± 0.044
GCGCTTCA	0.0829 ± 0.026
AAGGGGCG	0.117 ± 0.025
AAGACCAA	-0.21 ± 0.041
GAGACTGC	-0.126 ± 0.047
CGAAGCTA	-0.163 ± 0.003
GCAACAAA	0.0977 ± 0.037
CGCCTCTA	0.109 ± 0.021
CCGACAGA	0.14 ± 0.039
CCCCACAA	0.168 ± 0.04
ATGCTTGC	-0.00782 ± 0.049
ACATTACG	0.0527 ± 0.019
CTGTACAG	-0.0973 ± 0.04
AGGATCCT	0.077 ± 0.074
CTTTGGGA	-0.0906 ± 0.0035
CGGCGCCC	-0.0887 ± 0.1
ATCGGGGA	-0.344 ± 0.057
AGCGGATA	-0.0522 ± 0.025

Sequence	PBM E-score of 8-mer
CGGCTCTC	-0.162 ± 0.11
GAGCTCAA	-0.187 ± 0.0035
ACGTTCCT	-0.053 ± 0.11
CTAACAAG	0.198 ± 0.019
GGAATACA	-0.178 ± 0.07
ACCAAGAG	0.061 ± 0.015
AGAGGCGC	0.22 ± 0.016
ACGACCAC	-0.0751 ± 0.033
GGCTAGAA	-0.114 ± 0.04
ACGCCCCT	0.184 ± 0.026
AGAGTGAA	0.0596 ± 0.056
CTCGCTTC	0.0925 ± 0.0047
ACGGTAGC	0.0857 ± 0.071
ACATATGG	0.139 ± 0.0049
GGCGCAGA	-0.0539 ± 0.045
CTACAACC	-0.0546 ± 0.02
AACGTCGA	-0.151 ± 0.011
CAAACGTG	0.274 ± 0.017
TAGCATAA	-0.089 ± 0.025
CACAATAG	0.0919 ± 0.0084
GGCCGGAA	-0.18 ± 0.0071
AAGACGGG	-0.179 ± 0.056
GACCGTAA	-0.13205 ± 5.7e-05
AGACGGAC	-0.261 ± 0.022
CAGCTCTC	-0.0593 ± 0.0051

Sequence	PBM E-score of 8-mer
CAGCAGTA	-0.0761 ± 0.041
GCATTACC	-0.186 ± 0.036
AAATCTTG	-0.102 ± 0.11
TAGGACTA	-0.158 ± 0.13
ATCCCCCA	-0.0931 ± 0.074
GCCTAAGC	-0.212 ± 0.043
ACTGGAAG	-0.188 ± 0.031
GAACGCCC	0.138 ± 0.037
AATTACGT	-0.0719 ± 0.11
ATGTGATA	0.298 ± 0.048
AATTTGGC	0.156 ± 0.079
ACGAGCGC	-0.11 ± 0.027
ATTCGCCG	0.0106 ± 0.035
CGACACCA	0.414 ± 0.01
CGCGTAAG	0.168 ± 0.016
CAATTATC	0.162 ± 0.081
GTAGCGAA	0.0587 ± 0.064
CAGCGCCA	0.109 ± 0.028
TCTTTAAA	-0.155 ± 0.027
AGGGTTTA	-0.108 ± 0.0047
ATTGAGGG	-0.234 ± 0.015
CCGCTCCC	-0.00331 ± 0.029
AGACTCAC	0.14 ± 0.0049
ATAAGTAT	-0.123 ± 0.12
ATATCTAG	-0.224 ± 0.043

Sequence	PBM E-score of 8-mer
CTTCGTTA	0.0494 ± 0.024
CAGGTTAG	-0.00261 ± 0.011
CGGCCGCC	0.0148 ± 0.075
AATTGTGC	0.18 ± 0.014
CCTATCGA	0.0766 ± 0.026
CTCCCACC	0.319 ± 0.02
CGTCAGGC	0.0046 ± 0.028
GAGGCCGA	-0.169 ± 0.067
GATGCCAA	-0.123 ± 0.025
CGTGCTCA	-0.0409 ± 0.08
CCACGACG	0.0726 ± 0.039
GCGTACGA	-0.218 ± 0.076
TAATAGGA	-0.236 ± 0.026
CGTCTAGA	-0.204 ± 0.036
ACTTTATG	0.106 ± 0.044
TGACCACA	0.144 ± 0.017
GGCCGGCA	-0.135 ± 0.029
CGCACTCA	0.161 ± 0.074
CGATAGAG	-0.0781 ± 0.011
ATTCCAAA	-0.126 ± 0.05
AAACATAG	-0.0796 ± 0.034
ACTTCTAG	0.134 ± 0.019
AAGTGCGG	0.247 ± 0.0065
CCATTGTC	0.0521 ± 0.011
ACATGTTC	0.0421 ± 0.079

Sequence	PBM E-score of 8-mer
GCCAGTAA	0.159 ± 0.046
ACAATAGA	-0.139 ± 0.04
ATTGGGGG	-0.047 ± 0.012
AGCCGTAG	-0.272 ± 0.016
AGCCAACG	0.00609 ± 0.044
CAGAACAA	-0.164 ± 0.13
CCTCGAGC	-0.0327 ± 0.096
AGCGAACT	0.111 ± 0.03
GACATATC	-0.02 ± 0.011
CCCAGGAG	-0.147 ± 0.0049
CCAGGGCA	-0.238 ± 0.043
AGTACTTA	-0.0483 ± 0.016
ATAAGGTC	-0.146 ± 0.021
ACGGGATA	-0.0244 ± 0.035
GCAACTTA	0.0607 ± 0.0022
CCCTCGAA	-0.0611 ± 0.012
CATAGCCG	-0.212 ± 0.068
GTGCTAAA	0.435 ± 0.007
ACCACTAC	-0.202 ± 0.026
TCGGAAAA	-0.118 ± 0.1
AATGACCA	-0.276 ± 0.035
CGTGCACA	0.0991 ± 0.031
AGTTCGAC	-0.102 ± 0.014
ATGCATTC	-0.218 ± 0.024
GCTCCGCA	-0.0597 ± 0.027

Sequence	PBM E-score of 8-mer
ATAGGGCA	-0.249 ± 0.048
CCATACCG	-0.127 ± 0.026
AACAGCAT	-0.0226 ± 0.048
GACCGTCA	0.145 ± 0.016
GCATGACC	-0.127 ± 0.045
AGTACCTA	-0.0943 ± 0.082
TATGAATA	-0.183 ± 0.043
AGTTAACA	0.334 ± 0.013
GTAAACAC	0.278 ± 0.0036
CACTTTCA	0.312 ± 0.013
GCCGGGAC	-0.201 ± 0.054
GACGCCGA	0.124 ± 0.032
CCACCAGC	-0.164 ± 0.089
AGGAGCGG	-0.197 ± 0.0049
AAGGCCAC	-0.125 ± 0.026
GGAGGTAC	-0.298 ± 0.088
ATGCCACA	-0.0134 ± 0.0099
CCCCATTC	-0.114 ± 0.021
CGAGTTCC	-0.159 ± 0.039
TAATCATA	-0.2035 ± 0.0014
GAAACTGC	-0.0506 ± 0.011
CGAATTAC	-0.0757 ± 0.082
GCCCGCTA	0.00318 ± 0.07
TGATGACA	0.236 ± 0.028
TCCCGCGA	0.208 ± 0.011

Sequence	PBM E-score of 8-mer
CGCCGTAG	-0.118 ± 0.0022
CAAAACTC	0.0108 ± 0.045
GGCGAACC	-0.17 ± 0.042
ACTTATGC	-0.128 ± 0.028
GAGATATC	0.105 ± 0.073
CGATACAA	-0.192 ± 0.076
AGAGAGCA	-0.179 ± 0.096
ACCAATAC	0.0422 ± 0.027
TTAACAAA	0.0835 ± 0.071
GCGTCGCA	0.121 ± 0.0043
CACAAATA	0.018 ± 0.018
CGGGTCCA	-0.0138 ± 0.1
CCGCGCGG	-0.096 ± 0.013
AGGGTGCG	0.356 ± 0.052
ACAATACA	0.0805 ± 0.032
CAGGCGCC	0.261 ± 0.031
GCCATAAC	0.118 ± 0.0071
AAGCGCAC	0.0383 ± 0.021
CTTGATAC	-0.133 ± 0.057
GGACACCA	0.0777 ± 0.029
GAGCACTC	-0.232 ± 0.038
ATGTTAAG	-0.159 ± 0.049
